From PubChem BioAssay AID743279 (National Center for Advancing Translational Sciences (NCATS), 2014)
About 17,000 (4.7%) of roughly 360,000 compounds were called active. Inconclusive results, whose numbers are uncertain, are shown with a selection of clear calls. Rule as the data show it: active = activity change below about -50%; inconclusive = mostly about -30% to -49%; inactive = weaker than that.

Assay: qHTS for Inhibitors of Inflammasome Signaling: IL-1-beta AlphaLISA Primary Screen
Settings: THP-1 LPS/ATP IL-1B secretion, 16 h, at 57.5 µM, stronger effect = lower value
From the text: Inflammasomes are a set of intracellular multi-protein complexes that enable autocatalytic activation of inflammatory caspases and drive the innate immune response to counter harmful agents. […] A qHTS assay, based on AlphaLISA technology, was developed to screen the Molecular Libraries Small Molecule Repository (MLSMR) to look for novel inflammasome inhibitors. The assay detects IL-1B using AlphaLISA anti-IL-1B acceptor and donor beads. A decreased emission signal, indicating reduced IL-1B secretion, is the desired outcome for this assay. NIH Chemical Genomics Center [NCGC] NIH Molecular Libraries Probe Centers Network [MLPCN] MLPCN Grant: MH095513 Assay Provider: Shyam Biswal Ph.D., Johns Hopkins University Immunity. 2012 Jul 27;37(1):85-95. PMID: 22819042 [2] Curr Pharm Des. 2012;18(16):2320-8. PMID: 22390695
Three microliters containing 3000 THP-1 cells were dispensed into the wells of solid, white, tissue culture treated Greiner 1,536-well plates. Library compounds and positive control, Glyburide, were pin-transferred (23 nL) by a Kalypsys pin-tool equipped with a 1,536-pin array, resulting in final compound concentration ranges of 2.5 nM to 57.5 uM. After 1 hr of cell culture incubation (37 °C, 5% CO2), 1 microL of 1 microg/mL lipopolysaccharide (250 ng/mL, final) and 5 mM ATP (1.25 mM, final) were added to stimulate the cells. After 16 hr of cell culture incubation with the compounds, 1.5 uL of anti-IL-1B acceptor beads (6 ug/mL, final) and biotinylated antibody (0.6 nM, final) were added to the plate, followed by a 1 hr incubation at ambient temperature. To detect the secreted IL-1B, 1.5 uL of AlphaLISA SA-Donor beads (24 ug/mL, final) were added, followed by 30 min of incubation in the dark at ambient temperature. The AlphaLISA signal was read by a PerkinElmer EnVision plate reader with an ultrasensitive luminescence detector and 1536 Plate HTS AlphaScreen aperture (excitation of 680nm and emission of 615nm).
% is scaled to controls: 0 for no effect and ±100 for the full control effect.

| Compound | activity change |
| --- | --- |
| CN(Cc1ccccc1)C(=C(Cl)Cl)/C(=C1/NCCN1Cc1ccc(Cl)nc1)[N+](=O)[O-] | inconclusive: -45.6% |
| COc1ccc(/C=N/N=C(/N)N[N+](=O)[O-])c(OC)c1 | inconclusive: -46.2% |
| O=C1NCN(c2ccccc2)C12CCN(C(c1cc3ccccc3o1)c1nnnn1Cc1ccccc1)CC2 (centres undefined) | inconclusive: -32.4% |
| O=C1NC(=O)N(Cc2ccco2)C(=O)/C1=C/c1cccn1CCOc1ccccc1Cl | inconclusive: -47.3% |
| CCOC(=O)c1c(C)n(Cc2ccccc2)c2ccc(OCC(O)Cn3nc(C)nc3C)cc12 (centres undefined) | inconclusive: -34.5% |
| C[N+]1=C(/C=C/Nc2ccccc2)C(C)(C)c2ccccc21 | active: -81.4% |
| Cn1c(=O)c2c(nc(-c3ccc(N(CCCl)CCCl)cc3)n2C)n(C)c1=O | inconclusive: -38.5% |
| CCOP(=S)(OCC)Oc1ccc2c(C)c(Cl)c(=O)oc2c1 | inactive: -12.3% |
| O=C(COc1ccc(Br)cc1)N1CCN(Cc2c[nH]c3ccccc23)CC1 | inconclusive: -31.1% |
| COc1ccc(-n2nnnc2C(c2cccc3ccccc23)N2CCC3(CC2)C(=O)NCN3c2ccccc2)cc1 (centres undefined) | inconclusive: -45.8% |
| CCCCn1c(O)c(C(=O)/C=C/c2ccc3c(c2)OCO3)c(=O)[nH]c1=O | active: -73.2% |
| CN1CSC(=S)N(C)C1 | active: -95.4% |
| CCC(=NCCC1=CCCCC1)c1c(O)[nH]c(=O)[nH]c1=O | inconclusive: -33.1% |
| CC(=NCCC1=CCCCC1)c1c(O)n(-c2ccccc2)c(=O)[nH]c1=O | inconclusive: -35.1% |
| CC(C)(C)C(=O)OC[N+](C)(C)CCOC(=O)C(O)(c1ccccc1)C1CCCC1 (centres undefined) | inconclusive: -32.7% |
| COC(=O)C1=C(c2ccccc2OCc2ccccc2)C[C@@H]2CC[C@H]1N2C(=O)NCc1ccc(N(C)C)cc1 | inconclusive: -31.7% |
| COc1ccccc1OCCCn1cc(C(=O)c2ccco2)c2ccccc21 | inconclusive: -32.3% |
| CCOc1cc2c(cc1OCC)-n1cccc1C(c1ccc(C(C)C)cc1)NC2 (centres undefined) | active: -94.1% |
| CCOC(=O)[C@]12Cc3cc(C)ccc3[C@H]1N(C1CCCCC1)C(=O)c1cc(OC)ccc12 | active: -111% |
| COC(=O)Cn1cc(/C=C2\C(=O)NC(=O)N(c3ccc(OC)cc3)C2=O)c2ccccc21 | inconclusive: -31.7% |
| CC1CCN(C(=O)CCl)CC1 | inconclusive: -31.8% |

| Compound | activity change |
| --- | --- |
| COC(=O)C1=C(c2ccc(F)cc2OCc2ccccc2)C[C@@H]2CC[C@H]1N2C(=O)NCc1ccc(Br)cc1 | active: -59.7% |
| Cc1ccc(CNCCc2ccc(F)cc2)s1 | inconclusive: -33% |
| CCOc1ccc(N)cc1 | inactive: 4.71% |
| O=C(NC1CCCCC1)N1Cc2cc(-c3cccc(F)c3)ccc2-n2nncc2C1 | inconclusive: -36.7% |
| Cc1cc(C(=O)Nc2ccccc2)nn1C(C)(C)C | inactive: -4.33% |
| CCc1nnc(NC(=O)CCc2nc(C3=CCN(C)CC3)no2)s1 | active: -53.8% |
| Cc1nonc1OCCNCCNc1ccc([N+](=O)[O-])c2cccnc12 | inconclusive: -44.9% |
| Cc1cc(OC(=O)c2cccs2)c2c3c(c(=O)oc2c1)CCCC3 | inconclusive: -32.8% |
| Fc1ccc(C(OCCN2CCCC2)c2ccc(F)cc2)cc1 | inconclusive: -47.3% |
| COC(=O)C1=C(c2cccc(OCc3ccccc3)c2)C[C@@H]2CC[C@H]1N2C(=O)NCc1ccc(C(F)(F)F)cc1 | active: -55.2% |
| COc1ccc(CCNC(=O)c2c(N)n(CCN3CCOCC3)c3nc4ccccc4nc23)cc1OC | inconclusive: -47.9% |
| COC(=O)C1=C(c2c(C)noc2C)C[C@@H]2CC[C@H]1N2C(=O)NC(C)C | inactive: -4.5% |
| COC(=O)C1=C(c2ccc(F)cc2OCc2ccccc2)C[C@@H]2CC[C@H]1N2C(=O)NCc1ccc(N(C)C)cc1 | inconclusive: -37.8% |
| O=[N+]([O-])c1ccc(C[n+]2c(-c3ccccc3)cc(-c3ccccc3)cc2-c2ccccc2)cc1 | inconclusive: -40.7% |
| O=c1[nH]c2ccccc2n1C1CCN(C(c2ccccc2OC(F)(F)F)c2nnnn2-c2ccc3c(c2)OCCO3)CC1 (centres undefined) | active: -55.7% |
| COc1cc(CNCCc2c[nH]c3ccccc23)cc(OC)c1OC | inconclusive: -32.8% |
| CCCCCCOc1ccc(CN2CCN(CCO)CC2)cc1 | inconclusive: -31.7% |
| O=C1NCN(c2ccccc2)C12CCN(C(c1cc3ccccc3o1)c1nnnn1-c1ccc3c(c1)OCCO3)CC2 (centres undefined) | inactive: -22.1% |
| COC(=O)C1CN(C#N)N(c2ccc(Cl)cc2)C12c1ccccc1-c1ccccc12 (centres undefined) | active: -97% |
| Cc1cccc(N2C(=O)NC(=O)/C(=C\c3ccc4c(c3)CCCN4Cc3ccccc3)C2=O)c1 | inconclusive: -39.5% |
| CC(=NCC1CCCO1)c1c(O)n(C2CCCCC2)c(=O)[nH]c1=O (centres undefined) | inconclusive: -46.9% |

| Compound | activity change |
| --- | --- |
| COc1nc(NCC2CCCO2)nc(N2CC3CC(C2)c2cccc(=O)n2C3)n1 (centres undefined) | inactive: 9.29% |
| COc1cccc(Oc2c(C)oc3cc(OC(=O)N(C)C)ccc3c2=O)c1 | inactive: -3.03% |
| COc1ccc(CN2CC3CC(C2)c2cccc(=O)n2C3)cc1OC (centres undefined) | inactive: 0.759% |
| Clc1ccc2c(c1)C(c1ccccc1Cl)=NCc1nnc(N3CCN(CCOc4ccccc4)CC3)n1-2 | inconclusive: -38.7% |
| CC(C)COc1ccc(C2(C#N)CC[N+](C)(C)CC2)cc1 | inconclusive: -36.2% |
| CCC(=O)O[C@H]1CC[C@H]2[C@@H]3CCC4=CC(=O)CC[C@]4(C)[C@H]3CC[C@]12C | active: -71.6% |
| Clc1ccc(COC(Cn2ccnc2)c2ccc(Cl)cc2Cl)c(Cl)c1 (centres undefined) | inconclusive: -33.2% |
| CCCCOC(=O)c1ccccc1N | inactive: -7.59% |
| O=C1NCN(c2ccccc2)C12CCN(C(c1ccccc1OC(F)(F)F)c1nnnn1-c1ccc3c(c1)OCCO3)CC2 (centres undefined) | inconclusive: -48.6% |
| CN1CCN(c2c(F)cc([N+](=O)[O-])c(N)c2Br)CC1 | inconclusive: -43.5% |
| O=C(c1cccs1)c1cn(Cc2ccccc2Cl)c2ccccc12 | inconclusive: -32.1% |
| O=C(C(=C1N(Cc2ccc(Cl)nc2)CCN1Cc1ccc(Cl)nc1)[N+](=O)[O-])C(Cl)Cl | active: -71.3% |
| CCN(CC(=O)Nc1ccc(C#N)c(Cl)c1)CC(=O)NC1CCS(=O)(=O)C1 (centres undefined) | inactive: 4.53% |
| CC(=O)C1C(N2CC2)CC2C3CC=C4CC(O)CCC4(C)C3CCC21C (centres undefined) | active: -50.7% |
| O=C(NCc1cccnc1)Nc1ccccc1Cl | inactive: -4.49% |
| N#CC(C#N)=NNc1ccc(-n2ccc(C(F)(F)F)n2)cc1 | active: -83.2% |
| C/C(CC(c1ccccc1)c1c(O)c2ccccc2oc1=O)=N\NC(N)=S (centres undefined) | inactive: 31.9% |
| O=C(C(=O)N1CCOCC1)c1cn(Cc2ccc(F)cc2)c2ccccc12 | inconclusive: -32.8% |
| CC(C)N1CCN(Cc2ccccc2C(F)(F)F)CC1CCO (centres undefined) | inactive: -2.17% |
| O=C(CNC(=O)c1cccc(Cl)c1)Nc1ccc(Br)cc1C(=O)c1ccccc1 | inconclusive: -39.4% |
| COc1cc2c(cc1O)CC1c3c(cc(O)c(OC)c3-2)CCN1C (centres undefined) | inconclusive: -33.4% |

| Compound | activity change |
| --- | --- |
| COCCNCCOc1ccc(C(C)(C)c2ccccc2)cc1 | active: -67.9% |
| COC(=O)C1=C(c2ccc(-c3ccccc3)c(F)c2)C[C@@H]2CC[C@H]1N2C(=O)N1CCC(O)CC1 | inconclusive: -45.6% |
| CCC(C)NC(=O)c1c(N)n(CC2CCCO2)c2nc3ccccc3nc12 (centres undefined) | active: -57.2% |
| CCCCS(=O)(=O)N1CCN(C(=N)N[N+](=O)[O-])CC1 | inactive: 8.73% |
| O=C1NCN(c2ccccc2)C12CCN(C(c1ccccc1)c1nnnn1C1CCCC1)CC2 (centres undefined) | inconclusive: -39.7% |
| O=C(c1ccccc1F)c1cn(Cc2ccc(F)cc2)c2ccccc12 | inconclusive: -44.9% |
| COc1ccc(CCNC(C)CCc2ccc(OC)cc2)cc1 (centres undefined) | active: -63.9% |
| COc1ccc(N2C(=O)NC(=O)/C(=C\c3ccc([N+](=O)[O-])s3)C2=O)cc1 | inconclusive: -43.7% |
| CCCCn1c(O)c(C(C)=Nc2ccc3c(c2)CCC3)c(=O)[nH]c1=O | inactive: 52.9% |
| COc1ccc(CCNC(=O)c2c(N)n(CCN3CCOCC3)c3nc4ccccc4nc23)cc1 | inconclusive: -41.4% |
| COc1ccc(N2C(=O)/C(=C/c3cc(C)n(-c4ccc(C)cn4)c3C)C(=O)NC2=S)c(OC)c1 | inconclusive: -35.2% |
| CC12CC(=O)C3C(CCC4CC(=O)C=CC43C)C1CCC2=O (centres undefined) | active: -93% |
| COc1cccc(-n2c(/C=C/c3ccc(O)c(O)c3)nc3ccccc3c2=O)c1 | inconclusive: -41% |
| O=c1oc2ccccc2c(O)c1C(c1ccccn1)c1c(O)c2ccccc2oc1=O | inactive: 41% |
| C=CCNC(=O)c1c(N)n(CCN2CCOCC2)c2nc3ccccc3nc12 | inconclusive: -48.4% |
| CCN(CC)C(=O)COc1cc(C)cc2oc(=O)c3c(c12)CCCC3 | active: -50.2% |
| CCOc1ccc(N=Cc2c(O)n(C(C)(C)C)c(=O)[nH]c2=O)cc1 | inconclusive: -32.8% |
| CN1C(=O)/C(=C\c2ccc(N3CCCCC3)o2)C(=O)NC1=S | inconclusive: -37.1% |
| COc1ccc(-c2nn(CCC#N)cc2C(=O)Nc2ccc(C(C)=O)cc2)cc1 | inconclusive: -40% |
| COc1cccc(NP(=O)(Oc2ccccc2Cl)Oc2ccccc2Cl)c1 | active: -87.3% |
| COP(=O)(OC)C1(O)C(=O)Nc2ccc(Br)cc21 (centres undefined) | inactive: 0% |
